The record followed here is PubChem BioAssay AID463173 (ICCB-Longwood Screening Facility, Harvard Medical School, 2010).

Hit rate of the full screen: of about 52,000 compounds, about 1,700 (3.3%) were called active. Rule as the data show it: active = survival mostly below about 52% (no sharp cut-off); inactive = mostly above about 56%. The list shows a part of the results.

In this test the test system is Wild type. The test is described as follows: S. aureus survival, RN4220 and DeltatarO strains – OD600, teichoic acid synthesis inhibitors, primary screen (AID 463173). The conditions noted are these: S. aureus RN4220 wild type/DeltatarO growth, OD600, 18 h, stronger effect = lower value, screened at 18.75 µg/mL (by protocol).
In the case of `Cc1cccc(NC(=O)CSc2nnc(CNC(=O)c3c(F)cccc3Cl)o2)c1C`, the survival is inactive: 79%.

Consider `CC(C)c1nn2c(=O)cc(COC(=O)c3ccc(NC(=O)CCc4ccccc4)cc3)nc2s1`, for which the survival is inactive: 71%.

Take `CCCCNS(=O)(=O)c1ccc2c(c1)C(=C(C#N)C#N)c1cc(S(=O)(=O)NCCCC)ccc1-2`: the survival is inactive: 99%.

In the case of `CCCCCn1c(=O)[nH]c2cc(C(=O)Nc3ccc(F)cc3)ccc2c1=O`, the survival is inactive: 114%.

With `CCOC(=O)C1CCN(S(=O)(=O)c2cc(-c3cc(C)no3)ccc2C)CC1`, the survival is inactive: 70%.

`Cc1cccc(-c2nc3scc(CCNC(=O)c4ccccc4Cl)n3n2)c1`: the survival is inactive: 102%.

For `CC1CCN(CCNC(=O)c2ccc(Cn3c(SCc4ccccc4)nc4cccnc43)cc2)CC1`, the survival is inactive: 101%.

Turning to `CCN(CC)C(=O)c1c(NC(=O)c2cccc(C)c2)sc2c1CCC(C)C2` (centres undefined), the survival was active: 2%.

In the case of `CCN1CCC(N(Cc2ccc3c(c2)OCO3)C(=O)Nc2cc(F)ccc2F)CC1`, the survival was inactive: 55%.

As for `Cc1ccc(NC(=O)c2sc3nc(-c4cccs4)ccc3c2N)cc1F`, the survival is inactive: 92%.

As to `O=C(NC12CC3CC(CC(C3)C1)C2)c1cncc(O)c1`, the survival was inactive: 102%.

Consider `COc1ccc(-c2cc(C(F)(F)F)nc(SCCC(=O)Nc3ccc(OC)c(OC)c3)n2)cc1`, for which the survival is inactive: 51%.

As to `CCCCc1nnc(SCc2cc(=O)c3cc(F)ccc3[nH]2)n1C`, the survival is inactive: 68%.

On to `CC(C)(C)NC(=O)C1CCN(c2nc3ccccc3nc2C(F)(F)F)CC1`, for which the survival is inactive: 45%.

`COc1ccc(C(=O)NCCn2cc(SCc3c(F)cccc3Cl)c3ccccc32)cc1`: the survival was inactive: 59%.

`Cc1ccc(-n2ncc3c(NC4CCCCCC4)ncnc32)cc1`: the survival was inactive: 53%.

Consider `COc1ccc(CNC(=O)CN2C(=O)CC(c3ccc(C)c(C)c3)=Nc3ccccc32)cc1`, for which the survival is inactive: 73%.

On to `O=C(c1cnc(N2CCOCC2)c2ccccc12)N1CCN(c2ccccc2)CC1`, for which the survival is inactive: 66%.

For the molecule `COc1cc(C)c(N)cc1C(C)C`, the survival was inactive: 100%.

In the case of `Cc1cc(C)c(-c2n[nH]c3c2C(c2ccccc2F)N(Cc2ccco2)C3=O)c(O)c1` (centres undefined), the survival is active: 8%.

Turning to `O=c1[nH]c2cc(Br)ccc2n2cccc12`, the survival was inactive: 55%.

Consider `COc1cc(NC(=O)N2CCc3c(sc4c3CCCC4)C2c2ccccc2)cc(OC)c1OC` (centres undefined), for which the survival is inactive: 101%.

As for `CCN(CC)CCSc1c(C(C)C)cnc2c1c(=O)n(C)c(=O)n2C`, the survival is inactive: 64%.

As for `CCOc1ccc(CNC(=O)CSc2nnc(C)c3c(C)n(-c4ccc(Cl)cc4)nc23)cc1`, the survival is inactive: 90%.

On to `O=C(CN1C(=O)COc2ccc(S(=O)(=O)NC3CCCC3)cc21)NCc1ccc(Cl)cc1`, for which the survival is inactive: 68%.

For `CCC(CC)c1nnc(NC(=O)CS(=O)(=O)Cc2ccccc2)s1`, the survival was inactive: 105%.

As to `COc1ccc(OC)c2sc(N3CCN(C(=O)c4ccco4)CC3)nc12`, the survival was inactive: 76%.

For the molecule `CN(C)NC1CCS(=O)(=O)C1` (centres undefined), the survival was inactive: 113%.

Consider `Cc1c(C(=O)N2CCC(C)CC2)c(S(=O)(=O)N(Cc2ccccc2)C(C)(C)C)c(C)n1C`, for which the survival is inactive: 76%.

Take `CN1CCN(C(=O)C(=O)Nc2c3c(nn2-c2ccc(Cl)cc2)CSC3)CC1`: the survival is inactive: 71%.

As for `Cn1c(=O)c(C(=O)O)nn(-c2ccccc2)c1=O`, the survival is inactive: 81%.

`Cc1ccc(NC(=O)Nc2nnc(N3CCCC3)s2)cc1C`: the survival is inactive: 85%.

Take `Cc1nn2c(=O)cc(COC(=O)c3cccc(NC(=O)COc4ccccc4C)c3)nc2s1`: the survival is inactive: 86%.

As to `CCOCCCn1c(=N)c(C(=O)NCc2cccnc2)cc2c(=O)n3ccccc3nc21`, the survival was inactive: 70%.

Regarding `CCN(CC)C(=O)c1ccc2c(c1)N(Cc1ccc(C(F)(F)F)cc1)C(=O)c1ccccc1S2`, the survival was inactive: 81%.

Consider `Cc1ccc(N2C(=O)CCSC23C(=O)N(Cc2ccccc2)c2ccccc23)cc1` (centres undefined), for which the survival is inactive: 72%.

In the case of `CCOc1ccccc1CNC(=O)C1CCCN(c2nnc(C)c3c(C)n(-c4ccccc4)nc23)C1` (centres undefined), the survival was inactive: 71%.

Take `COc1cccc(CNC(=O)CSC2=Nc3ccccc3N=C(c3ccc(F)cc3)C2)c1`: the survival is inactive: 128%.

Turning to `COc1cccc(CN(Cc2ccco2)C(c2nnnn2Cc2ccc(F)cc2)C(C)C)c1` (centres undefined), the survival is inactive: 106%.

Regarding `COC(=O)c1ccc(C(=O)OC)c(NC(=O)CN(c2ccccc2)S(=O)(=O)N(C)C)c1`, the survival is inactive: 95%.

On to `CCOC(=O)C1CCN(C(=O)Cn2nc(CC)n3c(cc4sccc43)c2=O)CC1`, for which the survival was inactive: 121%.

For `O=C(NCc1ccccc1Cl)c1ccc(CS(=O)(=O)c2ccc(Br)cc2)o1`, the survival was inactive: 130%.

Regarding `Cn1nnnc1SCCCNCc1ccccc1OCc1ccc(Cl)cc1`, the survival was inactive: 96%.

Take `COc1ccc(Nc2ncnc3sc4c(c23)CCCC4)cc1`: the survival was inactive: 73%.

Turning to `Cc1cc(C)c(NC(=O)Cn2c(=O)n(CCC(=O)N3CCc4ccccc4C3)c(=O)c3ccccc32)c(C)c1`, the survival was inactive: 83%.

Consider `CCN(CC)S(=O)(=O)c1ccc2c(c1)N(CC(=O)N1CCN(c3cccc(C)c3C)CC1)C(=O)CO2`, for which the survival is inactive: 128%.

Take `Clc1ccc(-n2ncc3c(NC4CCCC4)ncnc32)cc1`: the survival was inactive: 80%.

As to `O=C(CSc1ncccn1)NN=C1CCCCCC1`, the survival was inactive: 93%.

Consider `Cc1c(CNC2CCCCC2)c(C(=O)O)c(C)n1Cc1ccc(Cl)cc1`, for which the survival is inactive: 96%.

For the molecule `Cc1ccc(Cn2c3ccccc3c3cnn(CC(=O)Nc4cc(Cl)ccc4C)c(=O)c32)cc1`, the survival is inactive: 77%.

With `CCC(=O)Nc1sc2c(c1C#N)CC(C)(C)NC2(C)C`, the survival is inactive: 105%.

For the molecule `CCOc1cc(CNS(=O)(=O)c2ccc3c(c2)C(C)(C)C(=O)N3)cc(OCC)c1OCC`, the survival is inactive: 88%.

For the molecule `COc1ccc(N2CCN(C(=O)c3cccn3-c3nnc(N4CCCC4)s3)CC2)cc1`, the survival is inactive: 95%.

Consider `O=C(CSc1n[nH]c(-c2ccccc2Cl)n1)NCCc1ccccc1`, for which the survival is inactive: 72%.

For `CCc1nn(CCCC(=O)NCc2ccc(OC(C)C)cc2)c(=O)c2cc3occc3n12`, the survival was inactive: 89%.

Regarding `COc1ccc(C)cc1NC(=O)Nc1nnc(N2CCCCC2)s1`, the survival was inactive: 70%.

For the molecule `CCOC(=O)C1CCCN(c2nc3c(S(=O)(=O)c4ccc(CC)cc4)nnn3c3ccc(Cl)cc23)C1` (centres undefined), the survival is inactive: 89%.

Consider `CC(NC(=O)Cn1ccc2cc(S(=O)(=O)N3CCCCCC3)ccc21)c1ccccc1` (centres undefined), for which the survival was inactive: 76%.

Turning to `O=C(CSc1nnc(Cc2csc(Nc3cccc(Cl)c3)n2)o1)c1ccc2c(c1)OCCO2`, the survival was inactive: 88%.

In the case of `CCN(C(=O)CCc1nc(-c2ccc(C)cc2)no1)c1cccc(C(F)(F)F)c1`, the survival was active: 0%.

For the molecule `COc1ccc(C(=O)Nc2ccc(S(=O)(=O)Nc3cc(C)nc(C)n3)cc2)cc1`, the survival is inactive: 77%.

As for `O=C(CCS(=O)(=O)c1cc2c(cc1Cl)NC(=O)CO2)NCCc1ccccc1`, the survival was inactive: 87%.

Take `CCCS(=O)(=O)N1CC(=O)N(c2cccc(F)c2)C(C)(C(=O)NC2CCCCCC2)C1` (centres undefined): the survival is inactive: 75%.

As to `CCC(=O)N=c1sc2ccccc2n1-c1ccccc1`, the survival is inactive: 93%.

As to `CCc1ccc(NC(=O)CSc2nnc3[nH]c(=O)cc(-c4ccccc4)n23)cc1`, the survival was inactive: 143%.

Regarding `CCOC(=O)c1c(C)[nH]c(CCC(=O)Nc2ccccc2C(F)(F)F)c1C`, the survival is inactive: 68%.

Take `CC(=O)N1c2ccccc2N(C)C(=O)C1(C)C`: the survival was inactive: 105%.

Take `COC(=O)c1ccc2c(=O)n3nc(Nc4ccc(F)cc4F)sc3nc2c1`: the survival is inactive: 92%.

As to `COc1ccc(CN2CCc3c(c(=O)n4ncc(C(=O)N5CCN(c6ccccc6F)CC5)c4n3C)C2)cc1`, the survival is inactive: 78%.

With `COc1cc(CNc2ccc3[nH]c(=O)[nH]c3c2)ccc1OCc1ccc(F)cc1Cl`, the survival is inactive: 88%.

Regarding `CCCCC1CCC(C(=O)N2CC(=O)Nc3ccc(C)cc3C2c2ccc(F)cc2)CC1` (centres undefined), the survival is inactive: 51%.

Take `COc1ccc(Cn2ccc3nc(C)c(C(=O)N4CCN(c5cccc(OC)c5)CC4)cc3c2=O)cc1`: the survival is inactive: 71%.

Regarding `COc1ccc(NC(=O)c2c(NC(=O)C(F)(F)F)sc3c2CCCCC3)cc1`, the survival is active: -1%.

As to `CS(=O)(=O)N(Cc1ccccc1)c1ccc(C(=O)Nc2cccc(Cl)c2)cc1`, the survival was inactive: 66%.

As to `COc1ccc(CNC(=O)c2ccc3c(O)c(S(=O)(=O)c4ccccc4)c(=O)[nH]c3c2)cc1`, the survival was inactive: 90%.

Regarding `Cc1cccc(N2CCN(C(=O)c3nn(C)c4c3CS(=O)(=O)c3ccccc3-4)CC2)c1C`, the survival is inactive: 85%.

Take `CC(=O)c1cccc(NC(=O)CN2C(=O)CCc3cc(S(=O)(=O)N4CCCCC4)ccc32)c1`: the survival is inactive: 82%.

As to `O=C(Nc1cccc(C(F)(F)F)c1)Nc1nnc(N2CCCCCC2)s1`, the survival was inactive: 89%.

In the case of `COCCCNC(=O)CN1C(=O)c2cccnc2Sc2ccccc21`, the survival was inactive: 82%.

Turning to `COc1ccccc1N1CCN(C(=O)c2cc(-c3ccc(C)c(F)c3)on2)CC1`, the survival was inactive: 92%.

`Cc1ccc(NC(=O)CSc2nc(-c3ccco3)cc(C(F)(F)F)n2)c(C)c1`: the survival was inactive: 85%.

In the case of `COc1cccc2cc(C(=O)Nc3ccc(CC(=O)O)cc3)c(=O)oc12`, the survival is inactive: 73%.

Turning to `CCN(CC)CCNC(=O)C(=O)Nc1c2c(nn1-c1ccc(F)cc1)CSC2`, the survival was inactive: 71%.

Consider `COc1ccc(-c2cc(C(=O)Nc3sc4c(c3C(N)=O)CCCC4)no2)cc1`, for which the survival was inactive: 96%.

Consider `CCCCN1CC(c2nc3ccccc3n2CCCCOc2cc(C)cc(C)c2)CC1=O` (centres undefined), for which the survival was active: 14%.

Turning to `Cc1ccn2c(NC3CCCCC3)c(C)nc2c1`, the survival was inactive: 101%.

`CCOc1ccc(S(=O)(=O)N2Cc3ccccc3CC2C(=O)Nc2ccc(NC(C)=O)cc2)cc1` (centres undefined): the survival was inactive: 80%.

As for `CCCCN1C(=O)c2ccc(Br)cc2C1=O`, the survival is inactive: 104%.

Turning to `Cc1cccc(NC(=O)CSc2nc3ccc(NC(=O)COc4ccccc4C)cc3s2)c1`, the survival is inactive: 79%.
